Molecules are shown by their SMILES. Where two headings read alike, the source gives them in different places.

Consider seven compounds from patent US10358436B2, “Kinase inhibitors and method of treating cancer” (University Health Network, priority 2010, dated 2019).

Common to all, as to assay: cells
The test system of assay [1] is human mammary epithelial primary cells (HMEC). The settings on record: 120 h, read-out: Cell Line GI50 Range HMEC.
Assay [2] concerns SW620 colon cancer cell line. The settings on record: Homo sapiens, SW-620, 120 h, read-out: Cell Line GI50 Range SW-620.
The test system of assay [3] is A549 lung cancer cell line. The settings on record: Homo sapiens, A549, 120 h, read-out: Cell Line GI50 Range A-549.
Assay [4] relates to HCC1954 basal breast cancer cell line. The following applies: Homo sapiens, HCC1954, 120 h.
Assay [5] concerns MCF-7 luminal breast cancer cell line. The settings on record: Homo sapiens, MCF7, 120 h.
Assay [6] deals with MDA-MB-468 basal breast cancer cell line. The following applies: Homo sapiens, MDA-MB-468, 120 h.
[7] abbreviates: read-out: Cell Line GI50 Range HCC-1954, HCC1954 basal breast cancer cell line, SRB assay, 5 days.
[8] abbreviates: read-out: Cell Line GI50 Range MCF-7.
Where [9] appears, read: read-out: Cell Line GI50 Range MDA-MB-468, MDA-MB-468 basal breast cancer cell line, SRB assay, 5 days.
Setting [10] is: read-out: Cell Line GI50 Range HCC-1954.
Setting [11] is: read-out: Cell Line GI50 Range MDA-MB-468.

By GI50 is commonly meant the concentration at which growth is held to half of that of the control. As to `COc1ccc2c(c1)[C@@]1(C[C@@H]1c1ccc3c(-c4ccc(N5CCN(C)CC5)nc4)n[nH]c3c1)C(=O)N2` (stereo in doubt) [Example A16, (1S,2R)-5′-methoxy-2-(3-(6-(4-methylpiperazin-1-yl)pyridin-3-yl)-1H-indazol-6-yl)spiro[cyclopropane-1,3′-indolin]-2′-one], the 50% growth inhibitory concentration (GI50) in assay [1] is over 10000 nM; in assay [2], 1000 to 10000 nM; in assay [3] it was under 100 nM; in assay [4] (setting [7]), 1000 to 10000 nM; in assay [5] (setting [8]), under 100 nM; in assay [6] (setting [9]) it was 100 to 1000 nM.
As for `CCN1CCN(c2ccc(-c3n[nH]c4cc([C@@H]5C[C@@]56C(=O)Nc5ccc(OC)cc56)ccc34)cc2)CC1` [Example A99, (1R,2S)-2-(3-(4-(4-ethylpiperazin-1-yl)phenyl)-1H-indazol-6-yl)-5′-methoxyspiro[cyclopropane-1,3′-indolin]-2′-one 2,2,2-trifluoroacetate], the 50% growth inhibitory concentration (GI50) in assay [1] was over 10000 nM; in assay [2] it was under 100 nM; in assay [3], under 100 nM; in assay [4] (setting [7]) it was 100 to 1000 nM; in assay [5] (setting [8]), under 100 nM; in assay [6] (setting [9]), under 100 nM.
For the compound `COc1ccc2c(c1)[C@]1(C[C@H]1c1ccc3c(/C=C/c4ccc(OCCN5CCOCC5)cc4)n[nH]c3c1)C(=O)N2` [Example A194, (1R,2S)-(E)-5′-methoxy-2-(3-(4-(2-morpholinoethoxy)styryl)-1H-indazol-6-yl)spiro[cyclopropane-1,3′-indolin]-2′-one 2,2,2-trifluoroacetate], the 50% growth inhibitory concentration (GI50) in assay [1] was over 10000 nM; in assay [2], 100 to 1000 nM; in assay [3] it was under 100 nM; in assay [4] (setting [10]), over 10000 nM; in assay [5] (setting [8]), under 100 nM; in assay [6] (setting [11]), under 100 nM.
As for `COc1ccc2c(c1)[C@]1(C[C@H]1c1ccc3c(/C=C/c4cccc(CN5CCOCC5)c4)n[nH]c3c1)C(=O)N2` [Example A132, (1R,2S)-5′-methoxy-2-(3-(3-(morpholinomethyl)styryl)-1H-indazol-6-yl)spiro[cyclopropane-1,3′-indolin]-2′-one 2,2,2-trifluoroacetate], the GI50 in assay [1] was over 10000 nM; in assay [2] it was under 100 nM; in assay [3] it was under 100 nM; in assay [4] (setting [7]), 1000 to 10000 nM; in assay [5] (read-out: Cell Line GI50 Range MCF-7, MCF-7 luminal breast cancer cell line, SRB assay, 5 days) it was 100 to 1000 nM; in assay [6] (setting [11]), under 100 nM.
For `COc1ccc2c(c1)[C@]1(C[C@H]1c1ccc3c(-c4ccc(N5CCN(C(C)C)CC5)cc4)n[nH]c3c1)C(=O)N2` [Example A97, (1R,2S)-2-(3-(4-(4-isopropylpiperazin-1-yl)phenyl)-1H-indazol-6-yl)-5′-Methoxyspiro[cyclopropane-1,3′-indolin]-2′-one 2,2,2-trifluoroacetate], the GI50 in assay [1] was over 10000 nM; in assay [2] it was under 100 nM; in assay [3], under 100 nM; in assay [4] (setting [10]), 100 to 1000 nM; in assay [5] (setting [8]) it was under 100 nM; in assay [6] (setting [11]), under 100 nM.
In the case of `CN(C)Cc1ccc(/C=C/c2n[nH]c3cc([C@@H]4C[C@@]45C(=O)N(CC(N)=O)c4ccccc45)ccc23)cc1` (relative stereo) [Example A160, 2-((1R*,2S*)-(E)-2-(3-(4-((dimethylamino)methyl)styryl)-1H-indazol-6-yl)-2′-oxospiro[cyclopropane-1,3′-indoline]-1′-yl)acetamide 2,2,2-trifluoroacetate], the concentration for 50% growth inhibition (GI50) in assay [1] was over 10000 nM; in assay [2], under 100 nM; in assay [3], under 100 nM; in assay [4] (setting [10]), under 100 nM; in assay [5] (setting [8]) it was 1000 to 10000 nM; in assay [6] (setting [11]), under 100 nM.
Turning to `COc1ccc2c(c1)[C@]1(C[C@H]1c1ccc3c(/C=C/c4ccc(N5CCN(C)CC5)cc4)n[nH]c3c1)C(=O)N2` [Example A175, (1R,2S)-(E)-5′-methoxy-2-(3-(4-(4-methylpiperazin-1-yl)styryl)-1H-indazol-6-yl)spiro[cyclopropane-1,3′-indolin]-2′-one 2,2,2-trifluoroacetate], the GI50 in assay [1] is 1000 to 10000 nM; in assay [2], under 100 nM; in assay [3], under 100 nM; in assay [4] (setting [10]), 100 to 1000 nM; in assay [5] (setting [8]), 100 to 1000 nM; in assay [6] (setting [11]) it was under 100 nM.
